From patent publication US11178870B2 (priority 2017, dated 2021)

Experiments:
Magnaporthe grisea = type: in vivo; settings: Table 7, Test A
Phytophthora infestans = type: in vivo; settings: Table 7, Test F
[1] = system: Colletotrichum orbiculare; settings: 250 ppm sprayed (2.5 ml/pot) before inoculation; assessed 6 to 10 days after inoculation

| Structure (SMILES) | control value, Test A (blast on rice) (Magnaporthe grisea) | control value, Test F (late blight on tomato) (Phytophthora infestans) | control value, Test H (anthracnose on cucumber) [1] |
| --- | --- | --- | --- |
| O=c1c(Br)cc(-n2cc(Cl)cn2)c(-c2ccccc2F)n1CC(F)F [Compound 278] | H (H shows the control value more than 50%) | L (L shows the control value of 50% or less) | L (L shows the control value of 50% or less) |
| Cc1cnn(-c2cc(Br)c(=O)n(C)c2-c2c(F)cccc2F)c1Cl [Compound 189] | H (H shows the control value more than 50%) | L (L shows the control value of 50% or less) | H (H shows the control value more than 50%) |
| CCn1c(-c2ccccc2Cl)c(-n2cnc(Cl)c2Cl)ccc1=O [Compound 208] | H (H shows the control value more than 50%) | L (L shows the control value of 50% or less) | H (H shows the control value more than 50%) |
| CCn1c(-c2ccccc2F)c(-n2ncc(C)c2Cl)cc(Br)c1=O [Compound 264] | H (H shows the control value more than 50%) | L (L shows the control value of 50% or less) | H (H shows the control value more than 50%) |
| CCn1c(-c2ccccc2OC)c(-n2cc(C)cn2)cc(Br)c1=O [Compound 247] | L (L shows the control value of 50% or less) | L (L shows the control value of 50% or less) | L (L shows the control value of 50% or less) |
| CCn1c(-c2ccccc2Br)c(-n2ncc(C)c2Cl)cc(Br)c1=O [Compound 271] | H (H shows the control value more than 50%) | L (L shows the control value of 50% or less) | H (H shows the control value more than 50%) |
| O=c1c(Cl)cc(-n2cc(Cl)cn2)c(-c2ccc(F)cc2F)n1CC(F)F [Compound 212] | H (H shows the control value more than 50%) | L (L shows the control value of 50% or less) | L (L shows the control value of 50% or less) |
